The record followed here is paper PMC4336329 (PLoS ONE, 2015).

The campaign covered roughly 310,000 compounds. About 2,200 (0.71%) showed an effect of 50% or more. Effects have a minus sign here. The list shows a part of the results.

For the test, the target named is human ether-à-go-go-related gene (hERG) potassium channel (human, UniProt Q12809). The test can be described thus: primary screen, population patch clamp on CHO cells stably expressing hERG.
Sequence of human ether-à-go-go-related gene (hERG) potassium channel (Q12809 whole entry, looked up): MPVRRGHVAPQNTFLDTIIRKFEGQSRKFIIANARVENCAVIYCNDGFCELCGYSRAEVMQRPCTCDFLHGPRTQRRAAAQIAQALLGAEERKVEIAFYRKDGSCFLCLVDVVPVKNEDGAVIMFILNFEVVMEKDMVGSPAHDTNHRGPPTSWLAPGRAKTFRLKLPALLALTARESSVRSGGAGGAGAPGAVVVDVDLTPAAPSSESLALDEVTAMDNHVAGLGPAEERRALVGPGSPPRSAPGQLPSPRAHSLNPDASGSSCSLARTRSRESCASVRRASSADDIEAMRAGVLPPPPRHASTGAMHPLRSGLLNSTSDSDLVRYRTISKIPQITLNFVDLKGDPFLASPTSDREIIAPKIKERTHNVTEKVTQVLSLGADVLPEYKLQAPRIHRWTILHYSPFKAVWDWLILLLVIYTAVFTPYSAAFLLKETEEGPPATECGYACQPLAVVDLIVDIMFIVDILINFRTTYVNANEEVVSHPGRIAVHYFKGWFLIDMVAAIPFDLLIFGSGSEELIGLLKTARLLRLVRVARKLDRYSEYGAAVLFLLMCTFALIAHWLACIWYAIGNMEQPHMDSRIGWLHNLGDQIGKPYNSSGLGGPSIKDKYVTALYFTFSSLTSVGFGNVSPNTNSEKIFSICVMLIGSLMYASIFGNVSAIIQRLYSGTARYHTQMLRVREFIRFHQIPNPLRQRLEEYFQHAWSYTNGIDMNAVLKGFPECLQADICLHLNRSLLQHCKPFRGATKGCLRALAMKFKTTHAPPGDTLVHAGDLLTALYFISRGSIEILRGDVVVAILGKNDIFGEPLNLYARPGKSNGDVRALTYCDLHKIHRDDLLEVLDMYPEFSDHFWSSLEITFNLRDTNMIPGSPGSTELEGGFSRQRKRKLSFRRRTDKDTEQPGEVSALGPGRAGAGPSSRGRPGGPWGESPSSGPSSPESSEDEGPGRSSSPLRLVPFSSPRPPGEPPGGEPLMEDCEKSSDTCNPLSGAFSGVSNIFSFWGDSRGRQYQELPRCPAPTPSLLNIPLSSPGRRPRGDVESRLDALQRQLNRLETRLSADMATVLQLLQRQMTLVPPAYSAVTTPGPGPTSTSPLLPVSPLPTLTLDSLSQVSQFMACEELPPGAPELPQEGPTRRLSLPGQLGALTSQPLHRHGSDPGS
For the molecule `O=C(NCCCN1CCOCC1)c1ccc2nc(Cc3ccccc3F)oc2c1`, the “hERG current change (%, negative = inhibition) at 1uM” value stood at 3.55%.
The value for `CCCCC(CC)C(=O)Nc1ccc(Nc2ccccc2)cc1` (centres unmarked) was 6.27%.
As for `O=C(CCCc1ccccc1)NCc1ccc(Cl)cc1`, the “hERG current change (%, negative = inhibition) at 1uM” value is given as 9.08%.
The value for `CC(C)N(Cc1nc(-c2ccc(Cl)cc2)no1)C(=O)/C=C/c1ccccc1` was 8.51%; that for `O=C(CSc1nc2ccccc2c(=O)n1Cc1ccco1)N1CCCC1` was -81.3%.
With `CCC1(c2ccc(F)cc2)NC(=O)N(CC(=O)Nc2ccc(C(N)=O)cc2)C1=O` (centres unmarked) the figure was 19.5%; with `CCOc1ccc(C(=O)NCCn2cc(SCC(=O)Nc3cc(C)on3)c3ccccc32)cc1`, 5.26%; with `CCOC(=O)/C(=C\C=C1/Sc2cc(OCC)c(OCC)cc2N1CC)C(C)=O`, 5.98%.
The value for `COc1ccc(CCNC(=O)CSc2nnnn2-c2ccc(OC)c(OC)c2)cc1OC` was 11%; that for `COc1ccc(CNC(=S)Nc2ccc(-c3ccccc3)cc2)cc1` was 6.99%.
Turning to `COc1cc(/C=C/[N+](=O)[O-])ccc1OC(=O)c1cccnc1`, the “hERG current change (%, negative = inhibition) at 1uM” value was 16%.
As to `Cc1ccc(NC(=O)Cn2c([N+](=O)[O-])cnc2C)cc1`, the “hERG current change (%, negative = inhibition) at 1uM” value turned out to be 0.82%.
With `CC1(C)Cc2nc3sc4c(N5CCCC5)nnnc4c3cc2CO1` the figure was 11.2%; with `O=P(COCCOCCOCP(=O)(c1ccccc1)c1ccccc1)(c1ccccc1)c1ccccc1`, 4.89%.
For `COc1ccc(S(=O)(=O)N2CCN(CC(=O)Nc3sccc3C(N)=O)CC2)cc1OC`, the “hERG current change (%, negative = inhibition) at 1uM” value is on record as -0.607%.
The value for `O=C(NN=C1CCCC1)c1ccn[nH]1` was 12%; that for `CCN1CCN(Cc2ccc(NC(=O)c3cc(NC(=O)C(=O)c4c[nH]c5ccccc45)cc(OC)c3)cc2C(F)(F)F)CC1` was 11.4%; that for `O=C(C1CC(=O)N(c2ccc3c(c2)OCCO3)C1)N1CCN(c2cccc(C(F)(F)F)c2)CC1` (centres unmarked) was 10.8%.
The value for `N#CC1=C(N)Nc2ncnn2C1c1ccc(F)cc1` (centres unmarked) was -0.339%.
As to `CCOc1ccc(CC(=O)NCC(=O)NCc2cc(=O)n(C)c(=O)n2C)cc1`, the “hERG current change (%, negative = inhibition) at 1uM” value was 9.39%.
For `COc1ccc(S(=O)(=O)N2CCCCC2)cc1NC(=O)CN(Cc1ccco1)Cc1ccco1`, the “hERG current change (%, negative = inhibition) at 1uM” value is given as -2.88%.
As to `CCCCn1c(N)c(N(CCOC)C(=O)C2CCN(S(=O)(=O)c3ccc(C)c(C)c3)CC2)c(=O)[nH]c1=O`, the “hERG current change (%, negative = inhibition) at 1uM” value is reported as -2.45%.
For the molecule `O=C(O)CNC(=O)/C(=C\c1ccco1)NC(=O)c1ccco1`, the “hERG current change (%, negative = inhibition) at 1uM” value turned out to be 14.4%.
As to `CC/C=C\[C@H](O)[C@H](O)C1=C(C)C(=O)[C@]2(O1)C(=O)N[C@@](OC)(C(=O)c1ccccc1)C2O` (some centres unmarked), the “hERG current change (%, negative = inhibition) at 1uM” value worked out at 6.73%.
With `COc1ccc(-c2noc(=O)n2Cc2ccc(F)cc2Cl)cc1`, the “hERG current change (%, negative = inhibition) at 1uM” value was 9.8%.
With `CCc1ccc(Nc2n[n+](-c3ccccc3)c(-c3ccc(C(=O)O)cc3)s2)cc1.[Cl-]` the figure was 10.4%; with `Cc1ccc(NC(=O)COC(=O)C2CCC2)cc1S(=O)(=O)N1CCCCC1`, 9.55%.
With `CC(=O)NCCc1c[nH]c2ccc(O)cc12`, the “hERG current change (%, negative = inhibition) at 1uM” value was 17.9%.
On to `COc1ccc(CN2CCC(N3CC(C)OC(C)C3)CC2)c(OC)c1OC.O=C(O)C(=O)O` (centres unmarked), for which the “hERG current change (%, negative = inhibition) at 1uM” value is given as 2.62%.
Regarding `CS(=O)(=O)c1cccc(C(=O)Nc2ccccc2Cc2ccccc2)c1`, the “hERG current change (%, negative = inhibition) at 1uM” value was 6.78%.
The value for `N#CC(C(N)=O)=C1CCCCC1` was 3.82%; that for `Cc1ccc(-n2cc(CNC(C)Cn3cncn3)c(-c3ccc(F)cc3)n2)cc1` (centres unmarked) was -16.9%.
The value for `Cc1nnc(N2CCN(Cc3ccccc3)CC2)[nH]c1=O` was 11.9%.
`CC(=O)C1=C(C)OC2(O)c3ccccc3C(=O)C12O` (centres unmarked): the “hERG current change (%, negative = inhibition) at 1uM” value was found to be 11.9%.
With `c1ccc(Cn2nnc3c(N4CCC5(CC4)OCCO5)ncnc32)cc1` the figure was 7.37%; with `COCCn1nnnc1C(c1cc2cc(C)ccc2[nH]c1=O)N1CCc2ccccc21` (centres unmarked), 9.19%.
For `CCC(CC)C(=O)Nc1cc(C)c2c(=O)oc3ccccc3c2n1`, the “hERG current change (%, negative = inhibition) at 1uM” value is 2.02%.
With `O=C(CNS(=O)(=O)c1ccc(Br)s1)N1CCC2(CC1)OCCO2` the figure was 2.52%.
Regarding `Cc1ccccc1OCCNc1cc(N2CC(C)NC(C)C2)ccc1[N+](=O)[O-]` (centres unmarked), the “hERG current change (%, negative = inhibition) at 1uM” value was determined as 12.7%.
With `COCCSc1ccccc1C(=O)Nc1nncs1` the figure was 12%; with `O=C(CCc1ccccc1)Nc1cccc(-c2nnc(-c3ccco3)o2)c1`, 7.31%; with `Cc1cc(Cl)ccc1NC(=O)COC(=O)CCNS(=O)(=O)c1ccccc1`, 1.75%.
The value for `Cc1noc(C(=O)Nc2ccc(F)cc2F)c1Cl` was 11.4%; that for `CC(=O)NS(=O)(=O)c1ccc(NC(=O)c2ccc(Cl)cc2[N+](=O)[O-])cc1` was 8.48%.
With `CCc1ccc(NC(=O)Cn2cnc3c(=O)n(C)c(=O)n(C)c32)cc1` the figure was 10.9%; with `COc1ccc(S(=O)(=O)N2CCOCC2)cc1NC(=O)COC(=O)C1COc2ccccc2O1` (centres unmarked), 14.1%; with `CCOc1nc2ccccc2nc1NS(=O)(=O)c1ccccc1`, 0.566%.
On to `Cc1cccc(C)c1OCCN1CCOCC1.O=C(O)C(=O)O`, for which the “hERG current change (%, negative = inhibition) at 1uM” value is recorded as 12.2%.
With `CN(C)CCCn1c(=O)n(CCc2ccccc2)c(=O)c2c3c(sc21)CCCCC3`, the “hERG current change (%, negative = inhibition) at 1uM” value came out at 2.17%.
As for `COC(=O)c1cc(-c2ccc(OC)c(OC)c2)c2c(=O)[nH]c(=O)n(C)c2n1`, the “hERG current change (%, negative = inhibition) at 1uM” value stood at 14.8%.
The value for `C#CCSc1nc(-c2cccs2)ccc1C#N` was -4.73%.
`Cc1ccc([N+](=O)[O-])cc1NC(=O)/C=C/C(=O)O`: the “hERG current change (%, negative = inhibition) at 1uM” value is listed as -2.92%.
Consider `CCOc1ccccc1NC(=O)NC1CCCc2ccccc21` (centres unmarked), for which the “hERG current change (%, negative = inhibition) at 1uM” value is reported as 12.7%.
The value for `O=C(Cn1ccc(C(F)(F)F)n1)Nc1ccc(S(=O)(=O)NCc2ccco2)cc1` was 11.2%; that for `CCCCN(C(=O)c1cc(S(=O)(=O)N2CCCCCC2)ccc1OC)c1c(N)n(CCC)c(=O)[nH]c1=O` was 9.07%.
With `Cn1c(=O)c2c(nc(CN3CCN(c4ccccc4)CC3)n2Cc2c(F)cccc2Cl)n(C)c1=O` the figure was 0.511%.
For the molecule `COC(=O)C1=C(C(=O)OC)C(c2ccccc2O)c2sc(=O)[nH]c2S1` (centres unmarked), the “hERG current change (%, negative = inhibition) at 1uM” value was -1.06%.
The value for `CCc1ccccc1N(CC(=O)NCc1ccc(OC)cc1)C(=O)CCC(=O)Nc1ccccn1` was 14.2%.
`CC1CCCC(NC(=S)NC(=O)c2cncc(Br)c2)C1C` (centres unmarked): the “hERG current change (%, negative = inhibition) at 1uM” value was 19.7%.
Turning to `COc1ccccc1-c1nc(C#N)c(N2CC(C)CC(C)C2)o1` (centres unmarked), the “hERG current change (%, negative = inhibition) at 1uM” value was found to be 6.95%.
The value for `CN(C)CC#CCn1c2ccccc2c2ccccc21.Cl` was 10.1%; that for `O=C(COc1ccccc1)Nc1nnc(S(=O)(=O)Nc2ccccc2)s1` was 11.3%; that for `CCCc1nnc(NC(=O)CS(=O)(=O)c2ccccc2)s1` was 10.2%.
With `C[C@]12CCC3C(CC[C@H]4CCCC[C@]34C)C1CC[C@@]2(O)CNCCO` (some centres unmarked) the figure was 10.1%; with `Cc1cc(C)c(S(=O)(=O)N2C=CC(C(F)(F)F)=NCC2)c(C)c1`, 17.3%; with `O=C(Nc1nnc(CCc2ccccc2)s1)c1ccco1`, 8.21%.
For `C=CCN1C(=O)OC2(CCCCC2)C1(C)O` (centres unmarked), the “hERG current change (%, negative = inhibition) at 1uM” value was found to be 4.4%.
`CCOc1cc(/C=C(\C#N)C(=O)Nc2cccc(C(=O)O)c2)ccc1OCc1ccccc1Cl`: the “hERG current change (%, negative = inhibition) at 1uM” value came out at 14.6%.
The value for `Cc1ccc(C)c(N2CCN(C(=O)CCS(=O)(=O)c3ccc4c(c3)CCN4C(=O)C3CC3)CC2)c1` was 7.6%; that for `Cc1ccc(NC(=O)C2=CC=CN3CCS(=O)(=O)N=C23)cc1` was 14.2%; that for `CC1CCCN(C(=O)Cc2cn(Cc3cccc(Cl)c3)c3ccccc23)C1` (centres unmarked) was 1.97%.
For the molecule `CCN1CCCC1CNC(=O)C(=O)Nc1ccccc1` (centres unmarked), the “hERG current change (%, negative = inhibition) at 1uM” value is recorded as 10.8%.
As for `Cn1nc(C(=O)NNC(=O)C(CCC(N)=O)NS(=O)(=O)c2ccc(Cl)cc2)c2ccccc2c1=O` (centres unmarked), the “hERG current change (%, negative = inhibition) at 1uM” value is listed as 6.9%.
Take `Cc1cc(C)c(C(=O)C(C)OC(=O)Cc2n[nH]c(=O)c3ccccc23)cc1C` (centres unmarked): the “hERG current change (%, negative = inhibition) at 1uM” value was 5.87%.
With `CCn1c(SCC(=O)N/N=C/C=C/c2ccco2)nnc1-c1ccc(OC)cc1` the figure was 0.386%; with `C=CCN(c1ccccc1)S(=O)(=O)c1cccc(C(=O)NC2CCN(Cc3ccccc3)CC2)c1`, -16.6%.
For the molecule `Cc1ccc2c(Cl)c(C(=O)Nc3nn[nH]n3)sc2c1`, the “hERG current change (%, negative = inhibition) at 1uM” value is 7.49%.
Take `Cc1ccc(Cn2c(SCC(=O)NCC3CCCO3)nc3c2c(=O)n(C)c(=O)n3C)cc1` (centres unmarked): the “hERG current change (%, negative = inhibition) at 1uM” value worked out at 2.65%.
In the case of `CN(NC(=O)c1ccco1)c1nc2ccccc2nc1C(F)(F)F`, the “hERG current change (%, negative = inhibition) at 1uM” value worked out at 12.8%.
On to `O=C(Nc1ccccc1)N1CCN(S(=O)(=O)c2ccccc2)CC1`, for which the “hERG current change (%, negative = inhibition) at 1uM” value came out at 10.1%.
`CCOC(=O)C1(Cc2cccc(OC)c2)CCN(Cc2cccc(OCC)c2O)CC1`: the “hERG current change (%, negative = inhibition) at 1uM” value is listed as -33.4%.
With `CCN(C(=O)c1cccc(NC(=O)c2ccccc2)c1)C1CCCCC1` the figure was 7.25%; with `CCOCCn1ccc2c(OCC(=O)Nc3ccc(OC)c(OC)c3)cccc2c1=O`, 9.94%; with `COc1ccc(-c2nc3nc(N)nn3cc2C)cc1F`, 16%.
Consider `N#Cc1ccc(C(=O)Nc2ccc3ccccc3c2)cc1`, for which the “hERG current change (%, negative = inhibition) at 1uM” value is 19.4%.
The value for `CCn1cc(/C=N\NC(=O)c2ccc3c(c2)c(C)c(C)n3Cc2ccccc2)c(C)n1` was -0.688%.
